From PMC4336329 (PLoS ONE, 2015) come the findings set out here.

Each structure is given as a SMILES string. Screen size: about 310,000 compounds; about 14,000 (4.5%) showed an effect of 50% or more. The effect is printed as a negative number. The list shows a part of the results.
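Note: peak tail current of the secondary pulse compared with the same well before compound.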

The target of the assay is human ether-à-go-go-related gene (hERG) potassium channel (human, UniProt Q12809). Kind of assay: primary screen, population patch clamp on CHO cells stably expressing hERG.
Chain of human ether-à-go-go-related gene (hERG) potassium channel (Q12809 whole entry, looked up): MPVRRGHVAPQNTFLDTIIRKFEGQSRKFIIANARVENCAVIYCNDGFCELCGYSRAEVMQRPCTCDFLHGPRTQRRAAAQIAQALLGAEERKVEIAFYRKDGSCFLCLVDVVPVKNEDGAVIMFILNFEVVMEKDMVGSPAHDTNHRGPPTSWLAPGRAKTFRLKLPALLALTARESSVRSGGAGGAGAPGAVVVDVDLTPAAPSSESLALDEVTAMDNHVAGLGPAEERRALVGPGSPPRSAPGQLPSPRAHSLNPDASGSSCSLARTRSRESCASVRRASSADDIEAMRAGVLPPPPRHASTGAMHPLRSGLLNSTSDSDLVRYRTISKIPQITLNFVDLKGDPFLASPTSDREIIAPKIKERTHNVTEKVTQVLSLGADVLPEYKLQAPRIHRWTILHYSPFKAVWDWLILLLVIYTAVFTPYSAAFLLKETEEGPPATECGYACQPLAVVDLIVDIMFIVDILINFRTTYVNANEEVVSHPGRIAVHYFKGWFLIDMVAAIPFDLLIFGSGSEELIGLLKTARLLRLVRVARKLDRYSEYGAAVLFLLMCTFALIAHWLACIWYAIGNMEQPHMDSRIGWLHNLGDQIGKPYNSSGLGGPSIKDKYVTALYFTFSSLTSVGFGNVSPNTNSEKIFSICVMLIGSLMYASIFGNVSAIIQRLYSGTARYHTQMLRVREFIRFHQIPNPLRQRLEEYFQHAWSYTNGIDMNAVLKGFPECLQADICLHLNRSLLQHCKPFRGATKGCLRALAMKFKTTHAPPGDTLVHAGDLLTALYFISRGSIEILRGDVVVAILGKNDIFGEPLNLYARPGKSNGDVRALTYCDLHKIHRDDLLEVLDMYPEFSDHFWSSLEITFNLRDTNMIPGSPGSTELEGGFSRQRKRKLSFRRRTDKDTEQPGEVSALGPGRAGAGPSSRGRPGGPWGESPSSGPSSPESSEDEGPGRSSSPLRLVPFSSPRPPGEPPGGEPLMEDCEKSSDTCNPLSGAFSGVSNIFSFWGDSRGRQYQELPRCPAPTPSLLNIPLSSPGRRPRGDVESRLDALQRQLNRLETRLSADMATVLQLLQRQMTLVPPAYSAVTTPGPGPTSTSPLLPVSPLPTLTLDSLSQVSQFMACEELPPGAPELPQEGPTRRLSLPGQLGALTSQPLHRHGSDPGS
For `c1ccc(OCc2nn3c(Cn4cnc5ccccc54)nnc3s2)cc1`, the “hERG current change (%, negative = inhibition) at 10uM” value is -28.6%. In the case of `CCNC(=O)COc1ccc(CC)cc1` it was 3.94%; in that of `Cc1ccc(S(=O)(=O)N2CCN(Cc3ccsc3)CC2)cc1`, -28%; in that of `CCc1ccc(N2CN=c3s/c(=C\c4ccccc4)c(=O)n3C2)cc1`, 8.48%. In the case of `COc1ccc(C(=O)NC(Oc2ccccc2)C(Cl)(Cl)Cl)cc1` (centres unmarked) it was 16.3%; in that of `COc1ccc(CCN(C)S(=O)(=O)c2ccc(Cl)nc2)cc1OC`, -11.3%. In the case of `O/N=C/c1cc(Br)ccc1OCc1ccccc1F`, the “hERG current change (%, negative = inhibition) at 10uM” value worked out at 6.6%. In the case of `CCN(C(=O)CSc1nc2cc(C(=O)O)ccc2c(=O)n1Cc1ccccc1)c1ccccc1` it was 23.9%; in that of `O=C(COC(=O)/C=C/c1ccccc1)NC1CCS(=O)(=O)C1` (centres unmarked), -23.5%. As for `Cn1cc(CN2CCCC(C(=O)Nc3cccc(-c4cc5ccccc5[nH]4)c3)C2)cn1` (centres unmarked), the “hERG current change (%, negative = inhibition) at 10uM” value is reported as -21.6%. Under `CC1CN(c2sc(S(C)(=O)=O)nc2S(=O)(=O)c2ccc(Cl)cc2)CC(C)O1` (centres unmarked) stands 16.1%; under `COc1ccccc1OCCSc1nc2ccc([N+](=O)[O-])cc2s1`, -2.78%. Under `CSc1ccccc1C(=O)Nc1nc2ccccc2[nH]1` stands 2.78%; under `O=C(CSc1ccccn1)N1CCCC(Nc2ccc(F)c(F)c2)C1` (centres unmarked), -16.2%; under `N#Cc1ccccc1Cn1c(=O)oc2ccccc21`, 13.3%. Regarding `Cc1cc2nccc(-c3ccc(F)cc3)n2n1`, the “hERG current change (%, negative = inhibition) at 10uM” value came out at 11.4%. Under `O=C1/C(=C\c2ccc(Cl)c(Cl)c2)N2CCC1CC2` stands -0.482%. Take `O=S(=O)(c1ccccc1)c1cnc(-c2cccnc2)nc1-c1ccccc1`: the “hERG current change (%, negative = inhibition) at 10uM” value is on record as 1.04%.

For the compound `Brc1c(C[n+]2ccccc2)nc2ccccn12.[Br-]`, the “hERG current change (%, negative = inhibition) at 10uM” value worked out at 10.8%.

For the compound `C=CCNS(=O)(=O)c1nc(C)c(Cl)c(C)c1C#N`, the “hERG current change (%, negative = inhibition) at 10uM” value is -2.44%. With `Cc1ccc(NCC(=O)Nc2ccc(Br)cc2)cc1C`, the “hERG current change (%, negative = inhibition) at 10uM” value is 11%. For the compound `CC(C)(C)c1cc(NC(=O)Nc2ccccc2)no1`, the “hERG current change (%, negative = inhibition) at 10uM” value is 10.3%. Turning to `O=C(NCc1ccccc1CN1CCCC1)C1CCN(S(=O)(=O)c2ccc(F)c(F)c2)CC1`, the “hERG current change (%, negative = inhibition) at 10uM” value is listed as -59.1%.

`CNC(=O)c1nn(-c2ccc(Cl)cc2)ccc1=O`: the “hERG current change (%, negative = inhibition) at 10uM” value is recorded as 9.97%.

`CCn1nccc1C(=O)Nc1cccc(C)c1C`: the “hERG current change (%, negative = inhibition) at 10uM” value is given as 4.31%.

With `CC(=O)Nc1ccccc1C(=O)C(=O)NCCc1ccccc1`, the “hERG current change (%, negative = inhibition) at 10uM” value is -6.79%.
